Experimental data taken from PubChem BioAssay AID686979 (National Center for Advancing Translational Sciences (NCATS), 2013).
About 50,000 (12%) of roughly 420,000 compounds were called active. Inconclusive results, whose numbers are uncertain, are shown with a selection of clear calls. The call rests on the fitted dose curve; in most records, active means well fitted inhibition curve with a large enough effect; inconclusive means small, poorly fitted or top-dose-only effect; inactive means flat fitted curve, though single readings scatter. No potency is given beside an inconclusive call; the fits are too rough.
On the % scale 0 is the no-effect control and ±100 the full control effect; potency means the concentration at half of the fitted maximal effect; tags describe the fitted curve by direction and shape.

Assay: qHTS for Inhibitors of human tyrosyl-DNA phosphodiesterase 1 (TDP1): qHTS in cells in presence of CPT; further: nearly all actives have a fitted effect of over 55% in size
Settings: chicken DT40 Tdp1-/-;hTDP1 cells + 20 nM CPT, ATP luminescence, 48 h; activity change, negative = growth inhibition: at 46.2 µM (top of the series) unless noted
In short: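 Cell growth measured by CellTiter-Glo luminescence after a minimum 48 h, 37 C compound exposure with 20 nM CPT in Tdp1-knockout DT40 cells stably expressing hTDP1, seeded 400/well; qHTS titration format.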
For `CC(=O)NC(c1ccc(Cl)cc1Cl)c1ccc2cccnc2c1O` (stereo not drawn), the Potency was active: 3.66 µM. For `O=C1C=C(/C=C/C2C=CC=CC2)C[C@@H](c2ccc(Cl)cc2)C1` (stereo partly drawn), the Potency was inconclusive [inhibitor, single point]. For `CCOc1cc(Br)cc(/C=C2\SC(=Nc3ccccc3)NC2=O)c1O`, the Potency was inconclusive [inhibitor, single point]. For `COCCNC(=S)N/N=C/c1ccc(OCc2ccc(C(=O)OC)cc2)c(OC)c1`, the Potency was inconclusive [inhibitor, full curve]. In the case of `CCn1c(=O)cc(SCC(=O)N2CCC(C)CC2)c2ccccc21`, the activity change, negative = growth inhibition is reported as inconclusive: -34% [inhibitor]. In the case of `Cc1ccc(CNC(=O)c2ccc(CSCc3ccc(Cl)cc3)o2)cc1`, the Potency is reported as inconclusive [inhibitor, single point]. In the case of `Cc1ccc(SCCOCCN2CCc3ccccc3C2)cc1`, the Potency is reported as inconclusive [inhibitor, single point]. For `Cc1ccc(S(=O)(=O)N2CCCCC2C(=O)N(C)c2ccccc2)cc1` (stereo not drawn), the Potency was active: 16.4 µM. In the case of `Cc1cccc(C(=O)N/C(=C\c2ccc(C)o2)C(=O)O)c1`, the Potency is reported as “inactive”. With `COc1cc(/C=C(\C#N)c2nc3ccc(C)cc3[nH]2)cc([N+](=O)[O-])c1O` the Potency was inconclusive [inhibitor, single point]. In the case of `Cc1cccc(N2CCN(S(=O)(=O)c3c(C)[nH]c(C)c3C(=O)N3CCCC3)CC2)c1C`, the Potency is reported as inconclusive [inhibitor, partial curve, poor fit]. For `NC1=NC(c2cccc(Cl)c2)N(CCc2ccc(F)cc2)C(N)=N1` (stereo not drawn), the Potency was inconclusive [inhibitor, single point]. In the case of `Cc1cc(C)c(NC(=O)c2cccc3c2C(=O)N(C2CCCCC2)C3)c(C)c1`, the Potency is reported as inconclusive [inhibitor, single point]. With `Cc1cc([N+](=O)[O-])c(-c2ccc(/C=N/n3cnnc3)o2)cc1Cl` the activity change, negative = growth inhibition was inconclusive: -35.3% [inhibitor]. With `CCCCNS(=O)(=O)c1ccc2nc(NC(=O)c3cccnc3)sc2c1` the Potency was inconclusive [inhibitor, single point]. In the case of `O=C(O)COc1ccc(-c2nccc(-c3ccccn3)n2)cc1`, the Potency is reported as inconclusive [inhibitor, single point]. For `CCc1nc(CN2CCCC(C(=O)c3ccc4c5c(cccc35)CC4)C2)c(C)[nH]1` (stereo not drawn), the Potency was inconclusive [inhibitor, single point]. With `CCN(CC)c1ccc(NC(=O)c2cnn(CC)c2)cc1` the Potency was inconclusive [inhibitor, single point].
